To fix the notation:
B1: PhoQ; a variant is named by its letters at X, in order, P23837 (parent)
chain: MKKLLRLFFPLSLRVRFLLATAAVVLVLSLAYGMVALIGYSVSFDKTTFRLLRGESNLFYTLAKWENNKLHVELPENIDKQSPTMTLIYDENGQLLWAQRDVPWLMKMIQPDWLKSNGFHEIEADVNDTSLLLSGDHSIQQQLQEVREDDDDAEMTHSVAVNVYPATSRMPKLTIVVVDTIPVELKSSYMVWSWFIYVLSANLLLVIPLLWVAAWWSLRPIEALAKEVRELEEHNRELLNPATTRELTSLVRNLNRLLKSERERYDKYRTTLTDLTHSLKTPLXXLQXXLRSLRSEKMSVSDAEPVMLEQISRISQQIGYYLHRASMRGGTLLSRELHPVAPLLDNLTSALNKVYQRKGVNISLDISPEISFVGEQNDFVEVMGNVLDNACKYCLEFVEISARQTDEHLYIVVEDDGPGIPLSKREVIFDRGQRVDTLRPGQGVGLAVAREITEQYEGKIVAGESMLGGARMEVIFGRQHSAPKDE

Some of the results follow. Where only a bound is given, the exact number is not on record here.

This experiment covers variants of B1. Description: enrichment ratio after two sorts for PhoP signalling (ratio (wild type AVST 3.29)); higher = more functional. The following applies: with PhoP (E. coli).
For the variant AEMN, the enrichment ratio is 8.59.

As to HVPW, the enrichment ratio was not above 0.25.

AHRV: the enrichment ratio is not above 0.25.

As to IHQM, the enrichment ratio is not above 0.25.

Take ELFQ: the enrichment ratio was not above 0.25.

With MKNF, the enrichment ratio was not above 0.25.

In the case of PAHM, the enrichment ratio is not above 0.25.

As for MHNT, the enrichment ratio was not above 0.25.

For the variant HNVQ, the enrichment ratio was not above 0.25.

Take YPRR: the enrichment ratio is not above 0.25.

Consider RSMG, for which the enrichment ratio is not above 0.25.

In the case of LAEA, the enrichment ratio is not above 0.25.

As to DSIC, the enrichment ratio is not above 0.25.

As for QSKF, the enrichment ratio is not above 0.25.

Take FITY: the enrichment ratio is not above 0.25.

For SDCP, the enrichment ratio is not above 0.25.

On to AAHP, for which the enrichment ratio is not above 0.25.

Regarding DCHG, the enrichment ratio was not above 0.25.

For the variant SGDT, the enrichment ratio was not above 0.25.

Turning to LNNW, the enrichment ratio was not above 0.25.

As for SDGI, the enrichment ratio was not above 0.25.

Regarding QTPP, the enrichment ratio was not above 0.25.

Regarding QCGD, the enrichment ratio was not above 0.25.

As to HIDP, the enrichment ratio was not above 0.25.

On to DEDV, for which the enrichment ratio was not above 0.25.

Consider AFSV, for which the enrichment ratio is not above 0.25.

Consider FKLK, for which the enrichment ratio was not above 0.25.

Take HDFH: the enrichment ratio was not above 0.25.

As to DYMH, the enrichment ratio is not above 0.25.

In the case of MIVG, the enrichment ratio was not above 0.25.

PRSD: the enrichment ratio was not above 0.25.

Regarding WPDI, the enrichment ratio was not above 0.25.

With NGHR, the enrichment ratio is not above 0.25.

With QAPM, the enrichment ratio was not above 0.25.

Regarding QAMS, the enrichment ratio was not above 0.25.

On to EFWR, for which the enrichment ratio is not above 0.25.

Consider HNAG, for which the enrichment ratio is not above 0.25.

On to AYGK, for which the enrichment ratio is not above 0.25.

As to MCRF, the enrichment ratio is not above 0.25.

As to PGVL, the enrichment ratio was not above 0.25.

Consider NMFC, for which the enrichment ratio is not above 0.25.

For EYSE, the enrichment ratio was not above 0.25.

As for YAPA, the enrichment ratio is not above 0.25.

Turning to RNFL, the enrichment ratio was not above 0.25.

Turning to GRVT, the enrichment ratio is not above 0.25.

As for SCPD, the enrichment ratio was not above 0.25.

With NNIQ, the enrichment ratio was not above 0.25.

For the variant CCLT, the enrichment ratio is not above 0.25.

As to HFGN, the enrichment ratio was not above 0.25.

In the case of QDRL, the enrichment ratio is not above 0.25.

As to GFKV, the enrichment ratio is not above 0.25.

On to KIGA, for which the enrichment ratio was not above 0.25.

Consider GWAE, for which the enrichment ratio was not above 0.25.

As for VMQY, the enrichment ratio was not above 0.25.

Regarding HCYS, the enrichment ratio is not above 0.25.

With QLHY, the enrichment ratio was not above 0.25.

As for GPDY, the enrichment ratio was not above 0.25.

For the variant SYHD, the enrichment ratio is not above 0.25.

For SATS, the enrichment ratio amounted to 14.2.

As to RVDV, the enrichment ratio was not above 0.25.

On to GYGA, for which the enrichment ratio is not above 0.25.

As to EADG, the enrichment ratio was not above 0.25.

NIAY: the enrichment ratio was not above 0.25.

With VHAV, the enrichment ratio is not above 0.25.

As for TPTC, the enrichment ratio is not above 0.25.

Consider WQDP, for which the enrichment ratio is not above 0.25.

With PDNV, the enrichment ratio is not above 0.25.

As for GSWH, the enrichment ratio was not above 0.25.

Turning to HTKI, the enrichment ratio is not above 0.25.

On to KEAF, for which the enrichment ratio was not above 0.25.

Turning to LHWG, the enrichment ratio was not above 0.25.

For RERM, the enrichment ratio is not above 0.25.

Take WMQY: the enrichment ratio was not above 0.25.

Take HQEY: the enrichment ratio is not above 0.25.

As for LYGT, the enrichment ratio was not above 0.25.

Consider FAFG, for which the enrichment ratio was not above 0.25.

For WYLY, the enrichment ratio was not above 0.25.

On to EGGV, for which the enrichment ratio was not above 0.25.

Regarding HFLF, the enrichment ratio was not above 0.25.

On to QCNE, for which the enrichment ratio was not above 0.25.

For the variant MHNK, the enrichment ratio is not above 0.25.

Regarding GVWL, the enrichment ratio was not above 0.25.

In the case of FSNT, the enrichment ratio is not above 0.25.

As to RRKL, the enrichment ratio is not above 0.25.

Turning to RIFN, the enrichment ratio was not above 0.25.

In the case of RTAW, the enrichment ratio was not above 0.25.

On to YELG, for which the enrichment ratio came out at 4.61.

Consider DMCY, for which the enrichment ratio was not above 0.25.

As to KRSQ, the enrichment ratio was not above 0.25.

In the case of PPKD, the enrichment ratio was not above 0.25.

In the case of ASLD, the enrichment ratio is 2.9.

On to ICGD, for which the enrichment ratio was not above 0.25.

In the case of NCTG, the enrichment ratio is not above 0.25.

Consider KICD, for which the enrichment ratio was not above 0.25.

Turning to PKQM, the enrichment ratio is not above 0.25.

Take NLKK: the enrichment ratio is not above 0.25.

Take GARV: the enrichment ratio is not above 0.25.

In the case of HYRV, the enrichment ratio is not above 0.25.

For SHFP, the enrichment ratio is 0.324.

Consider SKQG, for which the enrichment ratio is not above 0.25.

For the variant VGRW, the enrichment ratio is not above 0.25.

With YYMW, the enrichment ratio was not above 0.25.

With AYSD, the enrichment ratio is not above 0.25.

Take HPMI: the enrichment ratio was not above 0.25.

For LDME, the enrichment ratio is not above 0.25.

As to IMIA, the enrichment ratio was not above 0.25.

With SRFM, the enrichment ratio was not above 0.25.

Take YSNH: the enrichment ratio was not above 0.25.

On to PQYM, for which the enrichment ratio is not above 0.25.

On to MINP, for which the enrichment ratio is not above 0.25.

In the case of MRMY, the enrichment ratio was not above 0.25.

Turning to NEQR, the enrichment ratio was not above 0.25.

Take RMEL: the enrichment ratio is not above 0.25.

In the case of VDQQ, the enrichment ratio is not above 0.25.

Consider IKDP, for which the enrichment ratio is not above 0.25.

Regarding AIRK, the enrichment ratio is not above 0.25.

For QTYN, the enrichment ratio was 1.99.

For the variant RIVP, the enrichment ratio is not above 0.25.

Turning to KHSV, the enrichment ratio was not above 0.25.

As to IDDR, the enrichment ratio is not above 0.25.

For QSDD, the enrichment ratio is not above 0.25.

As to MDDY, the enrichment ratio was not above 0.25.

On to LMFW, for which the enrichment ratio was not above 0.25.

MDIV: the enrichment ratio came out at 6.39.

With ATAI, the enrichment ratio is not above 0.25.

Consider EQQF, for which the enrichment ratio is not above 0.25.

Regarding HESA, the enrichment ratio is not above 0.25.

As for PMSG, the enrichment ratio was not above 0.25.

For AMRQ, the enrichment ratio was not above 0.25.

MNPT: the enrichment ratio is not above 0.25.

Consider RLLW, for which the enrichment ratio is not above 0.25.

As for NRDH, the enrichment ratio was not above 0.25.

Take FAMY: the enrichment ratio is not above 0.25.

As for RWIM, the enrichment ratio is not above 0.25.

As to TMWM, the enrichment ratio is not above 0.25.

With WLGM, the enrichment ratio is not above 0.25.

Regarding KHNA, the enrichment ratio is not above 0.25.

Consider STSE, for which the enrichment ratio was 8.39.

Turning to NDSS, the enrichment ratio is not above 0.25.

With TCVS, the enrichment ratio was found to be 0.384.

As to WCMF, the enrichment ratio is not above 0.25.

On to DKDC, for which the enrichment ratio is not above 0.25.

Turning to AEYQ, the enrichment ratio was not above 0.25.

As to VFYV, the enrichment ratio is not above 0.25.

Consider LFWW, for which the enrichment ratio is not above 0.25.

RINF: the enrichment ratio was not above 0.25.

As for WGLA, the enrichment ratio was not above 0.25.

On to EDSM, for which the enrichment ratio is not above 0.25.

On to RQYE, for which the enrichment ratio was not above 0.25.

Turning to YFYV, the enrichment ratio was not above 0.25.

As for GNDM, the enrichment ratio was not above 0.25.

As to TVFM, the enrichment ratio was not above 0.25.

YERW: the enrichment ratio is not above 0.25.

The record behind these values is a collection of fitness landscapes (doi:10.1126/science.1257360).
